Drawing on PMC12136788, this text covers binding signal for 22 molecules.

This is one part of the list.

First the molecules themselves.
B1: chr6:39540002:39540221:-|CDS|ENSG00000164627|control|control|control (ssRNA)
RNA: GGGAGUUCUACAGUCCGACGAUCCCACUUGGCUGGCAUGGAUAGACGUGAAUUCAGACAGUCCCAGAGCCCACCCUUCCGCCUAGGAAACCCAGAAGAAGGUCAAAGAAUGCGACUAUCCUCAGCUCCCUCACAGGCCCAGGACAACAGAGGAUUGAGCAUCA
B2: chr10:128103381:128103482:-|CDS|ENSG00000148773|msi1|FALSE|unique (ssRNA)
RNA: GGGAGUUCUACAGUCCGACGAUCAACUGGCAGCAGGAGACGGCCAAGAGCACCCAGGGAAAGUGCCCAAGCCAUAGAAGACCUAGCUGGCUUCAAAGACCCAGCAGCAGGUCACACUGAAGAAUCAAUGACUGAUGACAAAACCAACAGAGGAUUGAGCAUCA
B3: chr3:100713726:100713879:+|CDS|ENSG00000114354|unk|FALSE|unique (ssRNA)
RNA: GGGAGUUCUACAGUCCGACGAUCACUUGGGGAGGAUAUUCGGCGAAUUCCUAUUCAUAAUGAAGAUAUUACUUAUGAUGAAUUAGUGCUAAUGAUGCAACGAGUUUUCAGAGGAAAACUUCUGAGUAAUGAUGAAGUAACAAUCAACAGAGGAUUGAGCAUCA
B4: chr1:235182574:235182675:-|CDS|ENSG00000054267|unk|total|mutant (ssRNA)
RNA: GGGAGUUCUACAGUCCGACGAUCUUUGACCAACAACAGAAAUGAUCUUAUUUCAAAGGAGGAACAGAACAGUUCAUCUUUGCCCGAAGAAAACAAAGUUCAUGCAGAUUUGGUAAUAUCCAAACCAGUGUCAAAAUCUCCAGACAACAGAGGAUUGAGCAUCA
B5: ENSG00000136451:be:win_1701|3pUTR|ENSG00000136451|bound_else_gene|NA|bound_elsewhere_windowed (ssRNA)
RNA: GGGAGUUCUACAGUCCGACGAUCUUUCUCCAAUUUGGCUGGGAUUAUUCAAAGUAGGGUGUGUAUGUAACUUAUCACUGGACCACUUUAGUUUAAUCAGAAAUUCCUUUUAGCUGACAACAUUGCUUAAACAGGAUAGUAGUUCAACAGAGGAUUGAGCAUCA
B6: chr14:106235063:106235368:-|CDS|ENSG00000211947|control|control|control (ssRNA)
RNA: GGGAGUUCUACAGUCCGACGAUCUGGGUCCGCCAGGCUCCAGGGAAGGGGCUGGAGUGGGUCUCAUCCAUUAGUAGUAGUAGUAGUUACAUAUACUACGCAGACUCAGUGAAGGGCCGAUUCACCAUCUCCAGAGACAACGCCCAACAGAGGAUUGAGCAUCA
B7: chr3:149369464:149369565:-|3pUTR|ENSG00000169908|msi1_unk|FALSE|overlapping (ssRNA)
RNA: GGGAGUUCUACAGUCCGACGAUCAAAUAACAUUCCAAUCACUAUUGUAUAUAUGUGCAUGUAUUUUUUAAAUUAAAGAUGUCUAGUUGCUUUUUAUAAGACCAAGAAGGAGAAAAUCCGACAACCUGGAAAGAUUUUUGUUUUCAACAGAGGAUUGAGCAUCA
B8: chr13:24435137:24435247:-|CDS|ENSG00000102699|unk|FALSE|unique (ssRNA)
RNA: GGGAGUUCUACAGUCCGACGAUCAAACCAACAGCAACUGAACCACUAUUUAAGAAAGUCAGUCCAUGGGAAACAUCUACUUCUAGCUUUUUUCCUAUUUUGGCUCCGGCCGUUGGUUCCUAUCUUCCCCCGACUGCCCGCGCUCAACAGAGGAUUGAGCAUCA
B9: chr12:32755127:32755228:-|CDS|ENSG00000139131|unk|FALSE|unique (ssRNA)
RNA: GGGAGUUCUACAGUCCGACGAUCCUUCUAUUACCUCUUCCAGCGUUAUGGAUGCAGGGUCCAGCUGGGCGGAUCUGAUCAACUAGGCAACAUCAUGUCCGGAUAUGAGUUCAUCAACAAGUAAGUGCCUUUAAACCUUGGGGACAACAGAGGAUUGAGCAUCA
B10: chr2:206311781:206311882:+|3pUTR|ENSG00000204186|unk|total|mutant (ssRNA)
RNA: GGGAGUUCUACAGUCCGACGAUCCCGUGUUCCGAGUCCUUUCAUUUUAAGAUUCAGAAACAGCCUUUGUCCAACAUUUUCUGCCGAAGAACUUCAUCUUAAUUUAUGUCACAAAAUAAUUCCGCACCGUAUACCGAAUUUUGUCAACAGAGGAUUGAGCAUCA
B11: chr6:125978377:125978478:+|3pUTR|ENSG00000111911|unk|FALSE|unique (ssRNA)
RNA: GGGAGUUCUACAGUCCGACGAUCAAUUUUGCCUCUAAUAACAUAAAGGGGGAAGAAACAUAAAGUGGUUCUCUUAAUAAAACUAGCAGAAAAUGUUGCUUUAUGGCAUGUUUUUGUAUCAAAGAGAAAUCAGAGGUUAAACUUCAACAGAGGAUUGAGCAUCA
B12: chr16:30351896:30351997:-|3pUTR|ENSG00000169217|unk|FALSE|unique (ssRNA)
RNA: GGGAGUUCUACAGUCCGACGAUCCUGGCACCCUCCACCUCCACGCCCCACCAGCAUUGCCUUACGCCUCCCUUGCCCCACGUUAGAUGGUUUCUUCCGGUUUUGCACUCUGGCUGCCCCUUGGAGUCUCCUGGGGAGCUGUAACAACAGAGGAUUGAGCAUCA
B13: chr17:19383441:19384461:-|three_prime_utr|ENSG00000166482|control|control|control (ssRNA)
RNA: GGGAGUUCUACAGUCCGACGAUCUACACCUGAAGUUACACUGCCAGCAGUUCCCCAGGCCUCUUCCGAGAGGCACAUGGUUCUAGCCUGGACCUGGCUGGGCUCCAUGAGAAUGAGUUGCCUCCAACCUGUCCCAACAGCUGACAACAGAGGAUUGAGCAUCA
B14: chr10:87753454:87753555:-|3pUTR|ENSG00000138138|msi1|FALSE|bound_elsewhere (ssRNA)
RNA: GGGAGUUCUACAGUCCGACGAUCCGUUUAAUGUGAAUUAUAUGUGAAUUUUUUUCAAAAUUUUACUAACCAGAAUUCUGUUAUAGGCACCUAACCACGCAGCAUGAGGAAAACGGCACAACACAAUCUUGAGGUGCCUUCUGACAACAGAGGAUUGAGCAUCA
B15: chr18:62902975:62903076:+|CDS|ENSG00000081913|unk|total|mutant (ssRNA)
RNA: GGGAGUUCUACAGUCCGACGAUCAGUGGACUUUCUACAGCAUGUUACUCAGCUUGACCUACGAGACAAUAAGCUUGGUGAUCCCGAUGCUAUGAUUUUCAACAACAUUGAAGUUUUACACUGUGAAAGGAAUCAACUGGUCACCAACAGAGGAUUGAGCAUCA
B16: chr12:293013:293114:-|CDS|ENSG00000073614|unk|FALSE|bound_elsewhere (ssRNA)
RNA: GGGAGUUCUACAGUCCGACGAUCACUAAAAGUGAAAGGAAAGGACUCUUCAGAGAAGAAACGGAAACGGAAGCUAGAAAAGGUAGAGCAACUUUUUGGAGAAGGAAAACAGAAGUCCAAGGAGUUAAAGAAAAUGGACAAACCCAACAGAGGAUUGAGCAUCA
B17: chr8:9779869:9779970:+|3pUTR|ENSG00000173273|msi1|FALSE|unique (ssRNA)
RNA: GGGAGUUCUACAGUCCGACGAUCGGAAUUUCUAGCUUUUCAAGCAGCAUAAGUAGAAUCAACAUUAGGAUGUUUUCAUGAAAUAGCAUCCUUAUACUUCUUUGAGCUUGAUGUUAGUGGCUAGACUGAUUUCCCUUUGCUCUCCAACAGAGGAUUGAGCAUCA
B18: ENSG00000142156:stop:overlap|stop_codon|ENSG00000142156|stop_codon|NA|stop_codon (ssRNA)
RNA: GGGAGUUCUACAGUCCGACGAUCACCAGGCCCUGCUCCGCGGUGUCUUCCACCAGACAGUCUCCAGGAAGGUGGCGCUGGGCUAGCCCACCCUGCACGCCGGCACCAAACCCUGUCCUCCCACCCCUCCCCACUCAUCACUAACAACAGAGGAUUGAGCAUCA
B19: chr14:103519669:103519777:-|3pUTR|ENSG00000166165|unk|FALSE|unique (ssRNA)
RNA: GGGAGUUCUACAGUCCGACGAUCCUGAUGUUCGCCGUCUGGCGAGCCCUUAGCCUUGCUGUAGAGACUUCCGUCACCCUUGGUAGAGUUUAUUUUUUUGAUGGCUAAGAUACUGCUGAUGCUGAAAUAAACUAGGGUUUUGGCCAACAGAGGAUUGAGCAUCA
B20: chr9:113264340:113264441:+|3pUTR|ENSG00000136868|msi1|FALSE|unique (ssRNA)
RNA: GGGAGUUCUACAGUCCGACGAUCAAAGUCUGCAUUUGAUAUAAUGCCUUAAUUACUGGGUCUACAAUUAAUGUUGACUGUUUUAGAUUGUAAGCUCCUGGAGAGCAGUAUUGCUGUAGUAGGAAUGUUUUAACAGUGUCAUAUCAACAGAGGAUUGAGCAUCA
B21: chr15:69271217:69271318:+|3pUTR|ENSG00000138604|msi1|FALSE|bound_elsewhere (ssRNA)
RNA: GGGAGUUCUACAGUCCGACGAUCGCAACAGCAAGUUGAUUUCUUGUGAUCCCAGAAUUUUCUAAGAGGAUGAGUUGAAUCUAUAGCAGCAUUGUCAGUACAGACCAGUGGUUCUCAAACUUUAAAAUGCCUCAGCAUCACUUGCAACAGAGGAUUGAGCAUCA
B22: chr8:41543231:41543332:+|3pUTR|ENSG00000147536|msi1|FALSE|unique (ssRNA)
RNA: GGGAGUUCUACAGUCCGACGAUCAAACCAUUAUUAAAUUUCCAUUCUGCAGCAGAAGGCACCUCUGGACGGCUCCCGGCUUGUAGUUUAAUGAAGUAUGUGCUCCCUGCUGUUAACCCGCAGCCCUCCCCAACUCUCCAGCAGCAACAGAGGAUUGAGCAUCA

The assay has as its target MSI1 full-length (mouse, UniProt Q61474 1-362). Kind of assay: nsRBNS (natural sequence RNA bind-n-seq); RBNS binding buffer (assumed for nsRBNS): 25 mM Tris pH 7.5, 150 mM KCl, 3 mM MgCl2, 0.01% Triton X-100, 500 ug/ml BSA, 20 U/ml SUPERase-In, 4 C; UNK is unkempt and MSI1 is Musashi-1; names of the RNAs are library labels; protein concentration not given here; high values mean tight binding.
UniProt Q61474, sequence (Q61474 whole entry): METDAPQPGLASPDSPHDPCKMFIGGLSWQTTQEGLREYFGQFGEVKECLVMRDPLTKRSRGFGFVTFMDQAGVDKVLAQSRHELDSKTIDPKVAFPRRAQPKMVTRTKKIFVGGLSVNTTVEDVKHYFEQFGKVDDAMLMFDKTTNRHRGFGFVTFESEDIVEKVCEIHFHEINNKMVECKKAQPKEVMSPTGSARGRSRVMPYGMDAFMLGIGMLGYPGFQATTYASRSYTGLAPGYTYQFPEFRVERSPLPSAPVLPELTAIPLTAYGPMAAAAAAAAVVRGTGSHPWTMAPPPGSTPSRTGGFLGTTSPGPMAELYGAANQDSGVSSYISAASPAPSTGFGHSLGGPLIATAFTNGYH
Turning to B1, the binding signal was 0.494 enrichment R.
With B2 the figure was 0.443 enrichment R; with B3, 0.88 enrichment R.
B4 yielded a binding signal of 0.165 enrichment R.
On to B5, for which the binding signal is 2.72 enrichment R.
For the molecule B6, the binding signal was 2.08 enrichment R.
With B7 the figure was 4.46 enrichment R; with B8, 0.454 enrichment R; with B9, 0.398 enrichment R.
With B10 the figure was 0.669 enrichment R; with B11, 0.335 enrichment R; with B12, 0.706 enrichment R.
For B13, the binding signal was 0.497 enrichment R.
With B14 the figure was 0.398 enrichment R.
With B15 the figure was 0.227 enrichment R; with B16, 0.889 enrichment R; with B17, 0.275 enrichment R.
In the case of B18, the binding signal is 0.343 enrichment R.
With B19 the figure was 0.356 enrichment R.
With B20 the figure was 2.88 enrichment R; with B21, 0.371 enrichment R.
As for B22, the binding signal came out at 5.04 enrichment R.
